The whole screen tested about 350,000 compounds, of which about 9,900 (2.8%) were called active. This list was built around the results that the source calls inconclusive (neither active nor inactive); the mix of calls is not that of the screen. The call rests on the fitted dose curve; in most records, active means well fitted activation curve with a large enough effect; inconclusive means small, poorly fitted or top-dose-only effect; inactive means no such curve, though single readings can be large or run the other way. Potencies of inconclusive entries are left out as doubtful fits.
Test: A quantitative high throughput screen for small molecules that induce DNA re-replication in MCF 10a normal breast cells. Further: nearly all actives have a fitted effect of over 50% in size. On activity, positive = re-replication: % of control where 0% means no effect.
Settings: MCF 10A DNA re-replication, Hoechst nuclear intensity, 48 h; activity, positive = re-replication: at 46.1 µM (top of the series)
Potency means the concentration at half of the fitted maximal effect; tags describe the fitted curve by direction and shape.

| Structure (SMILES) | Potency | activity, positive = re-replication |
| --- | --- | --- |
| CCOc1ccc(-c2csc(/C(C#N)=C\c3ccc(O)c([N+](=O)[O-])c3)n2)cc1 | inconclusive [activator, single point] |  |
| O=C(c1cnn(C(=O)c2cccc(S(=O)(=O)N3CCOCC3)c2)c1)c1ccccc1O |  | inactive: -0.639% |
| Cc1ccccc1NC1=C/C(=N\S(=O)(=O)c2cccs2)c2ccccc2C1=O | inconclusive [activator, partial curve] |  |
| O=C(O)C1CC(c2ccccc2)=NO1 (stereo unspecified) |  | inactive: -3.78% |
| CCOP(=O)(c1ccc(N(C)C)cc1)C(O)c1ccc(Cl)cc1 (stereo unspecified) | inconclusive [activator, partial curve, poor fit] |  |
| COc1cccc(-c2nc3sc4c(c3c(=O)[nH]2)CCCCC4)c1 | inconclusive [activator, single point] |  |
| CCn1c2ccccc2c2cc(NC(=O)CNCc3ccccc3OC)ccc21 | active: 7.31 µM |  |
| CC(C)Cn1c(CN(Cc2ccccc2)Cc2ccccc2)nc2c1c(=O)n(C)c(=O)n2C | inconclusive [activator, single point] |  |
| COC(=O)c1ccccc1C(=O)N1CCCC(C(=O)c2ccc(OC)c(OC)c2)C1 (stereo unspecified) | inconclusive [activator, single point] |  |
| COc1ccc(OC)c(CNn2c(-c3cccc(C)c3)nc3ccccc3c2=O)c1 | inconclusive [activator, single point] |  |
| Cc1ccc(NC(=O)C(C)OC(=O)Cn2cnc3ccccc3c2=O)cc1 (stereo unspecified) |  | inactive: -0.176% |
| CC(/C=N\N1CCN(c2ccc(Cl)cc2)CC1)=C\c1ccccc1 |  | inactive: 0.871% |
| Cc1ccnc(NC2c3ccccc3C(=O)N2Cc2ccccc2Cl)c1 (stereo unspecified) |  | inactive: 0.995% |
| CCOc1ccccc1N(CC(=O)NC1CCCCC1)C(=O)c1nsc(Cl)c1Cl | inconclusive [activator, single point] |  |
| C/C(=N/NC(=O)C1COc2ccccc2O1)c1ccc(Br)s1 (stereo unspecified) |  | inactive: 1.97% |
| O=C(NCc1nc2ccccc2[nH]1)C1=C[C@H](c2csc3ccccc23)C[C@H](OCc2ccc(CO)cc2)O1 | inconclusive [activator, partial curve, poor fit] |  |
| CCS(=O)(=O)c1ccc(N=Nc2ccc(O)c3ncccc23)c(OC)c1 | inconclusive [activator, single point] |  |
| O=C(N/C(=C/c1ccc(Br)cc1)C(=O)N1CCCCC1)c1ccccc1F |  | inactive: 6.86% |
| O=C(COc1ccccc1)NC(=S)Nc1ccc2c3c(cccc13)CC2 | inconclusive [activator, full curve, poor fit] |  |
| CC(/C=C1\SC(=S)N(CCCC(=O)Nc2ccc(C(=O)O)cc2)C1=O)=C\c1ccccc1 | inconclusive [activator, single point] |  |
| CC(=O)Nc1ccc(NC(=O)c2ccccc2N(C)S(=O)(=O)c2ccccc2)cc1 | inconclusive [activator, single point] |  |

| Structure (SMILES) | Potency | activity, positive = re-replication |
| --- | --- | --- |
| CCc1cccc(CC)c1NC(=O)CSc1nc2ccc(N3C(=O)C4C5C=CC(C5)C4C3=O)cc2s1 (stereo unspecified) | inconclusive [activator, partial curve, poor fit] |  |
| Oc1cccc(C(=S)N2CCC(Cc3ccccc3)CC2)c1 | inconclusive [activator, single point] |  |
| COc1ccccc1C1CCN(Cc2ccccc2Cl)CC1 |  | inactive: -5.68% |
| O=C(c1ccc([N+](=O)[O-])o1)N1CCN(c2nc3c(Cl)cccc3s2)CC1 | active: 7.31 µM |  |
| C=C1c2cccc(OC)c2O[C@H](C(=O)OCC)[C@@H]1CC(CC)CCCC (stereo partly specified) | inconclusive [activator, partial curve, poor fit] |  |
| CCOC(=O)c1cccc(NC(=O)Nc2cc(OC)ccc2OC)c1 | inconclusive [activator, single point] |  |
| COc1ccc2ccc(O)c(CN3CCN(S(=O)(=O)c4cccc(C(F)(F)F)c4)CC3)c2c1 |  | inactive: 5.23% |
| C[C@]12CCC(=O)C=C1[C@H](O)C[C@@H]1[C@@H]2[C@@H](O)C[C@@]2(C)[C@H]1CC[C@]2(O)C(=O)CO | inconclusive [activator, partial curve, poor fit] |  |
| CN(CCC#N)C(=O)COC(=O)c1nn(-c2ccccc2)c(=O)c2ccccc12 | inconclusive [activator, partial curve, poor fit] |  |
| O=C(Nc1cccc(S(=O)(=O)C(F)F)c1)c1ccc(S(=O)(=O)N2CCOCC2)cc1 | inconclusive [activator, single point] |  |
| N#C/C(=N\Nc1cccc(Cl)c1)C(=O)c1ccccc1 | inconclusive [activator, full curve, poor fit] |  |
| COc1ccccc1-c1nc(C#N)c(N2CCc3ccccc3C2)o1 | active: 16.4 µM |  |
| Oc1ccc(-c2n[nH]c(C(F)(F)F)c2-c2ccccc2)c(O)c1 | inconclusive [activator, full curve, poor fit] |  |
| c1ccc(-c2cn(C[C@H]3CC[C@H](Cn4cc(-c5ccccn5)nn4)O3)nn2)nc1 |  | inactive: 2.91% |
| COc1ccc(C(C(=O)NC2CCCCC2)N(C(=O)c2snc(C(N)=O)c2N)c2ccccc2OC)cc1 (stereo unspecified) | inconclusive [activator, single point] |  |
| Brc1ccc(C2=Nn3c(nnc3-c3n[nH]c4c3CCC4)SC2)cc1 | inconclusive [activator, full curve, poor fit] |  |
| Cc1csc2c(N3CCN(C(=O)Nc4ccc(Cl)c(Cl)c4)CC3)ncnc12 | inconclusive [activator, partial curve, poor fit] |  |
| CN(C(=O)c1ccc(NC(=O)Cc2ccc(NC(=O)C3CCCN(C(=O)CCc4ccccc4)C3)cc2)cc1)C1CCCC1 (stereo unspecified) | inconclusive [activator, single point] |  |
| CCOC(=O)c1sc2nc3c(cc2c1N)COC(C)(CC)C3 (stereo unspecified) | active: 18.4 µM |  |
| O=C(Nc1ccc(S(=O)(=O)N2CCCCC2)cc1)c1ccc(Cl)nc1 | inconclusive [activator, single point] |  |

From PubChem BioAssay AID624296 (National Center for Advancing Translational Sciences (NCATS), 2012)
